From PubChem BioAssay AID488969 (Vanderbilt High Throughput Screening Facility, 2010)
Over roughly 110,000 compounds, “z-score” has its median near -0.1; the highest 2% begin near 2. This is one part of the list.

target: Metabotropic glutamate receptor 8 (Rattus norvegicus) (UniProt P70579); test: mGluR8 Gi/Go-coupled signaling modulation – cell-based, rat, thallium flux, HTS, primary screen (AID 488969); settings: HEK293 rat mGluR8, GIRK (G protein-gated inwardly rectifying potassium channel) thallium flux, FluoZin2; at 10 µM; stronger effect = higher value; submaximal glutamate (EC20) added with thallium
UniProt P70579, sequence (P70579 whole entry, looked up): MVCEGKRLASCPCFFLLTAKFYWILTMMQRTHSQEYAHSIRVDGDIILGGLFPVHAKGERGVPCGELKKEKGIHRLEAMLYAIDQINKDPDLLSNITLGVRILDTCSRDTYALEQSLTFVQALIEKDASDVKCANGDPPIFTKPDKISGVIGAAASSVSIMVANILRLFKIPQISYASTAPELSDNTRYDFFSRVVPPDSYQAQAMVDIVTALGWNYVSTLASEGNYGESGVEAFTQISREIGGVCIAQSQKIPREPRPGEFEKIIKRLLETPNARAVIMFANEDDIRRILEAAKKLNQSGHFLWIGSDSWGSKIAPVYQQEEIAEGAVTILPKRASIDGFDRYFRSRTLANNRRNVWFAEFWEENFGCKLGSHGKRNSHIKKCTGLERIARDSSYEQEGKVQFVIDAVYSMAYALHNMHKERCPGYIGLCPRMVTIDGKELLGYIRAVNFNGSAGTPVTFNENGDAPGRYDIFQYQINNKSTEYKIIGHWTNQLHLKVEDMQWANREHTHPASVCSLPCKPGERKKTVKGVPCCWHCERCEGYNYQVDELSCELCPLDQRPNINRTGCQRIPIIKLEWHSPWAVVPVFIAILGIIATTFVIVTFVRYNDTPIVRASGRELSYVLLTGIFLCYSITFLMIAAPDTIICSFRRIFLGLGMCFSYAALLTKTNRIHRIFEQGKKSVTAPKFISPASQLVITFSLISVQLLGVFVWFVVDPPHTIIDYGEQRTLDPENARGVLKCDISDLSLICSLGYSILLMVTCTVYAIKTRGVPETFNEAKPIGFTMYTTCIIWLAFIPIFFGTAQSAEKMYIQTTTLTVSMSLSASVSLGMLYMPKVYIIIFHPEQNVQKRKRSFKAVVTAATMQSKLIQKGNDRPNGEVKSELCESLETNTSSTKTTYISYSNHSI

| SMILES | z-score |
| --- | --- |
| Cc1cc2c(C)nc(N/N=C/c3ccc([N+](=O)[O-])cc3)nc2o1 | -0.272 |
| CCCCOc1ccc(CNC(=O)NS(=O)(=O)c2ccc(OCC)cc2)cc1 | 0.401 |
| O=C(Cc1ccccc1)NCC(=O)OCC(=O)c1ccc([N+](=O)[O-])cc1 | -0.117 |
| O=C(/C=C/c1ccc(Cl)c(Cl)c1)N1CCc2ccccc21 | 0.293 |
| CC(C)Oc1ccc(/C=N/NC(N)=S)cc1 | 1.24 |
| COc1ccc(-c2csc(N(CC3CCCO3)C(=O)c3ccco3)n2)cc1 (stereo not given) | -0.318 |
| Cc1ccc(CNC(=O)C2CC(=O)N(C3CCCCCCC3)C2)cc1 (stereo not given) | 0.438 |
| CN1CCN(C(=O)c2ccc(COc3ccc(Cl)cc3Cl)cc2)CC1 | 0.0492 |
| Cc1ccc(S(=O)(=O)N(C)Cc2ccc(C(=O)N/N=C/c3ccc(OC(F)F)cc3)cc2)cc1 | 0.0686 |
| Cc1cc(C)c(NC(=O)CS(=O)CC(=O)NC2CCCc3ccccc32)c(C)c1 (stereo not given) | -0.236 |
| CCOC(=O)C(C(=O)OCC)C(=O)c1cc(OC)c(OC)c(OC)c1 | 0.0614 |
| CCOC(=O)CSc1nnc(-c2cccc(Cl)c2)n1CC | 1.3 |
| CCCCN(C(=O)CNC(=O)c1ccco1)C(C(=O)NC1CCCCC1)c1ccc(OC)cc1OC (stereo not given) | 0.432 |
| CCCC/C(C)=N/NC(=O)C(=O)NCCc1ccccc1 | -0.418 |
| COc1ccc(NS(=O)(=O)c2ccc(N3CCCC3)c(NC(=S)Nc3ccc(SC(F)F)cc3)c2)cc1 | -0.258 |
| CC(C)CC(=O)NC(=S)Nc1ccc(N2CCOCC2)cc1 | 1.36 |
| CCNC(=O)c1c(O)c2cccc3c2n(c1=O)CC3 | -0.449 |
| COc1ccc(C(=O)NN/C(C)=C/C(=O)C(F)(F)C(F)(F)C(F)(F)F)cc1 | 0.319 |
| Cc1nn(C(C)(C)C)c(OC(=O)c2cccs2)c1Sc1ccccc1 | 0.138 |
| COc1cccc2cc(C(=O)N3C(C)CCCC3C)c(=O)oc12 (stereo not given) | -0.135 |
| CON(C)c1nc(NCC(C)C)nc(OCC#N)n1 | -0.285 |
| CCOC(=O)c1c(-c2cccs2)csc1NC(C)=O | -0.908 |
| CN(Cc1ccccc1)C(=O)COC(=O)C1=NNC(=O)CC1 | 0.282 |
| CCc1nc(C)ccc1OC(=O)C12CC3CC(CC(C3)C1)C2 | 0.238 |
| CC(=O)Nc1ccc(S(=O)(=O)N2CCN(C(=O)N3CCOCC3)CC2)cc1 | 0.101 |
| O=C(CC1Oc2ccccc2NC1=O)NC1CC1 (stereo not given) | 2.19 |
| O=C(Cn1cc(SCc2ccccc2Cl)c2ccccc21)N1CCOCC1 | 0.00877 |
| O=C1c2ccccc2C(=O)N1CCC(c1ccc(F)cc1)c1ccco1 (stereo not given) | 0.111 |
| COc1ccc(Sc2cnn(-c3ccccc3)c(=O)c2Cl)cc1 | -0.936 |
| O=C(c1ccc2c(c1)OCO2)[C@@H]1[C@@H]2C(=O)N(C3CCCCC3)C(=O)[C@@H]2C2c3ccccc3C=CN21 (stereo not given in full) | 0.463 |
